This passage reports self-cleavage results from the RNAGym collection of RNA variant scans (doi:10.1093/nar/gkz1192).

B1: CPEB3 Ribozyme (parent)
chain: UAACAGGGGGCCACAGCAGAAGCGUUCACGUCGCAGCCCCUGUCAGAUUCUGGUGAAUCUGCGAAUUCUGCUGUAUAUCUC

The source gives no read counts; variants with many changes may rest on few reads.

The variants in this data set derive from B1. Kind of data set: self-cleavage, relative activity (ratio to wild type); higher = more cleavage; in vitro, sequencing. In outline:
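For each CPEB3 ribozyme variant, relative activity is its cleaved/total read fraction divided by the unmutated ribozyme's. Barcoded error-prone PCR libraries were transcribed by T7 RNA polymerase (5 hours, 37°C) and held in DNase I for 15 min before an EDTA stop, with cleavage occurring throughout. Template-switching reverse transcription and Illumina sequencing were used to read the RNAs. A 5-read minimum applied, and results are the mean of three batches.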
Turning to UAACGGGGGGCCACAGCAGAAGCGUUCACGUCGCAGCCCCAGUCAGAUUCUGGUGUAUCUGCGAAUUCUGCUGUAUAUCUC [A5G U41A A56U], the self-cleavage is 0.11.

As for UAACGGGGGGCCACAGCAGAAGCGUUCACGCCGCAGCCCCUGUCAGAUUCUGGUGGGUCUGCGAAUUCUGCUGUAUAUCUC [A5G U31C A56G A57G], the self-cleavage came out at 0.32.

Take UAACGGGGGGCCACAGCAGAAGCGUUCACGGCGCUGCCCCUGUCAGAUUCUGGUGAAUCCGCGAAUUCUGCUGUAUAUCUC [A5G U31G A35U U60C]: the self-cleavage came to 0.23.

As for UAACGGGGGGCCACAGCAGAAGCGUUCACGUCGCAGCCCCAGUCAGAUUCUGGUGAAUCUGCGAAUUCCGCUGUAUAUCUC [A5G U41A U69C], the self-cleavage stood at 0.28.

Take UAACGGGGGGCCACAGCAGAAGCGUUCACGUCGCAGCCCCAGUCAGAUUCUGGUGAAUCUGCGAAUUCGGCUGUAUAUCGC [A5G U41A U69G U80G]: the self-cleavage is 0.28.

Consider UAACGGGGGGCCACAGCAGAAGCGUUCACGUCGCAGCCCCCGUCAGAUUCUGGUGAAUCUGCGAAUUCUGCUGAAUAUCUC [A5G U41C U74A], for which the self-cleavage was determined as 0.68.

In the case of UAACGGGGGGCCACAGCAGAAGCGUUCACGUCGCAGCCCCCGUCAGAUUCUGGUUAAUCUGCGAAUUCUGCUGUAUAUCUC [A5G U41C G55U], the self-cleavage worked out at 0.84.

As to UAACGGGGGGCCACAGCAGAAGCGUUCACGACGCAGCCCCUGCCAGAUUCUGGUGAAUCUGCGAAUUCUGCUGUAUAUCUC [A5G U31A U43C], the self-cleavage was 0.27.

As for UAACGGGGGGCCACAGCAGAAGCGUUCACGACGCAGCCCCUGUCAGAUUCUGGUGAACCUGCGACUUCUGCUGUAUAUCUC [A5G U31A U58C A65C], the self-cleavage was 0.1.

For the variant UAACGGGGGGCCACAGCAGAAGCGUUCACGACGCAGCCCCUGUCAGAUUCUGGUGAAUCUGCGAAUUCUGCUGUAUGUCCC [A5G U31A A77G U80C], the self-cleavage is 0.3.

In the case of UAACGGGGGGCCACAGCAGAAGCGUUCACGCCGCAGCCCCCGUCAGAUUCUGGUGAAUCUGCUAGUUCUGCUGUAUAUCUC [A5G U31C U41C G63U A65G], the self-cleavage is 0.25.

Regarding UAACGGGGGGCCACAGCAGAAGCGUUCACGUCGCAGCCCCCGACAGAUCCUGGUGAAUCUGCGAAUUCUGCCGUAUAUCCC [A5G U41C U43A U49C U72C U80C], the self-cleavage came out at 0.27.

As for UAACGGGGGGCCACAGCAGAAGCGUUCACGUCGCAGCCCCAGUCAGAUUCUGGCGAAUCUGCGGAUUCUGCUGUAUAUCUC [A5G U41A U54C A64G], the self-cleavage came to 0.23.

For the variant UAACGGGGGGCCACAGCAGAAGCGUUCACGUCGCAGCCCCAGUCAGAUUCUGGUGGAUCUGCGAAUCCUGCUGUAUAUCUC [A5G U41A A56G U67C], the self-cleavage is 0.11.

In the case of UAACGGGGGGCCACAGCAGAAGCGUUCACGCCGCAGCCCCUGUCAGAUUCUGGUGAACCUGCGAAUUCUGCUGUAUAUCUC [A5G U31C U58C], the self-cleavage came to 0.34.

In the case of UAACGGGGGGCCACAGCAGAAGCGUUCACGACGCAGCCCCCGUCAGAUUCUGGUGAAUCUGCGAAUUCUGCUGUAUAUCUC [A5G U31A U41C], the self-cleavage worked out at 0.46.

Take UAACGGGGGGCCACAGCAGAAGCGUUCACGUCGCAGCCCCCGUCAGAUUCUGGUGAAUCUGCGAAUUCUGCUGUUUAUCUC [A5G U41C A75U]: the self-cleavage is 0.59.

As to UAACGGGGGGCCACAGCAGAAGCGUUCACGCCGCAGCCCCUGUCAGAUCCUGGUGACUCUGCGAAUUCUGCUGUAUAUCAC [A5G U31C U49C A57C U80A], the self-cleavage is 0.09.

UAACGGGGGGCCACAGCAGAAGCGUUCACGUCGCAGCCCCCGUCAGAUUCAGGUGAAUCUGCGAAUUCUGCUGUAUAUCUC [A5G U41C U51A]: the self-cleavage was determined as 0.4.

On to UAACGGGGGGCCACAGCAGAAGCGUUCACGUCGCAGCCCCCGUCAGAUUCGGGUGAAUCUGCGAAUUCUGCUGUAUAUCUC [A5G U41C U51G], for which the self-cleavage turned out to be 0.12.

As for UAACGGGGGGCCACAGCAGAAGCGUUCACGUCGCAGCCCCCGUCAGAUUCUGGAGUAUCUGCGAAUUCUGCUGUAUAUCUC [A5G U41C U54A A56U], the self-cleavage was found to be 0.5.

With UAACGGGGGGCCACAGCAGAAGCGUUCACGUCGCAGCCCCCGCCAUGUUCUGGUGAAUCUGCGAAUUCUGCUGUAUAUCCC [A5G U41C U43C G46U A47G U80C], the self-cleavage was 0.09.

In the case of UAACGGGGGGCCACAGCAGAAGCGUUCACGUCGCAGCCCCAGUCCGAUUCUGGUGAAUCUGCGAAUUCUGCUGUUUAUCUC [A5G U41A A45C A75U], the self-cleavage is 0.38.

In the case of UAACGGGGGGCCACAGCAGAAGCGUUCACGCCGCAGCCCCUGUCAGAUUCUGGUGAAUCUGCGAAUUCUGCUGUAUAUCCC [A5G U31C U80C], the self-cleavage is 0.28.

Turning to UAACGGGGGGCCACAGCAGAAGCGUUCACGUCGCAGCCCCAGCCAGAUUCUGCUGAAUCUGCGAAUUCUGCUGUAUAUCUC [A5G U41A U43C G53C], the self-cleavage was 0.31.

As to UAACGGGGGGCCACAGCAGAAGCGUUCACGUCGCAGCCCCCGUCAGAUUCUGGUGAAUCUGCGAAUUCUGCUGUAUAUCCC [A5G U41C U80C], the self-cleavage was determined as 0.75.

Turning to UAACGGGGGGCCACAGCAGAAGCGUUCACGACGCAGCCCCUGUCAGAUUCUGGUGAAUCUGCGAAUUCAGCUGUAUAUCCC [A5G U31A U69A U80C], the self-cleavage stood at 0.31.

Turning to UAACGGGGGGCCACAGCAGAAGCGUUCACGUCGCAGCCCCAGUCAGAUUCUGGUUAAACUGCGAAUCCUGCUGUAUAUCUC [A5G U41A G55U U58A U67C], the self-cleavage stood at 0.12.

Turning to UAACGGGGGGCCACAGCAGAAGCGUUCACGUCGCAGCCCCCGUCAGAUUCUGGUGAAACUGCGAAUUCUGCUGUAUAUCUC [A5G U41C U58A], the self-cleavage is 0.26.

Take UAACGGGGGGCCACAGCAGAAGCGUUCACGGCGCAGCCCUUGUCAGAUUCUGGUGAAUCUGCAAAUUCUGCUGUAUAUCUC [A5G U31G C40U G63A]: the self-cleavage was 0.11.

Turning to UAACGGGGGGCCACAGCAGAAGCGUUCACGCCGCAGCCCCUGUCAGAUUCUGGUGAAUCUGUGAAUUCUGCUGUAUAUCUC [A5G U31C C62U], the self-cleavage turned out to be 0.25.

Regarding UAACGGGGGGCCACAGCAGAAGCGUUCACGUCGCAGCCCCAGUCAGAUUCUGGUGAAUCUGCGAAUUCUGCGGUAUUUCAC [A5G U41A U72G A77U U80A], the self-cleavage stood at 0.07.

As to UAACGGGGGGCCACAGCAGAAGCGUUCACGCCGCAGCCCCUGUCAGAUUCUGGAGAAUCCGCGAAUUCUGCUGCAUAUCUC [A5G U31C U54A U60C U74C], the self-cleavage is 0.19.

For the variant UAACGGGGGGCCACAGCAGAAGCGUUCACGGCGCAGCCCCUGUCAGAUUCUGGUGAAUCUGCGCAUUCUGCUGAAUAUCUC [A5G U31G A64C U74A], the self-cleavage stood at 0.21.
